This is one part of the list. Cut-off read from the data, not from the text of the source: active = 3.2 or more and inactive = the rest. Only a few entries rise above the background.
What follows are binders tested against SHP2 C-SH2 domain E139D (assay: enrichment score (SH2-bound / input frequency) (ratio); bacterial display of known human phosphotyrosine sites (pTyr-Var adds point mutants) read by sequencing; higher = stronger binding; tyrosines were phosphorylated by kinases first). Conditions: peptide library: Human pTyr.
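Note: displayed peptides selected on beads carrying the immobilized SH2 domain, with library peptides lacking any tyrosine serving as negative controls.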

Enrichment score, inactive:
THGGRIDYIAGLDSR [APT_HUMAN_60] 0.679
SVPTHSPYAQPSSTF [P73_HUMAN_99] 0.623
KNETEDQYALMEDED [P85B_HUMAN_605] 1.1
AIGSTLSYFGLAAVF [P2RX7_HUMAN_343_YA] 2.29
ARRLCDLYYINSPEL [PDK1_HUMAN_243] 2.1
VLDVLEFYNSKKTSN [PAK1_HUMAN_131] 0.776
ARRLCDLYAINSPEL [PDK1_HUMAN_243_YA] 1.3
IGGSAPIYVKNILPR [PARD3_HUMAN_489] 0.783
KVVDDEIYYFRKPIV [PB1_HUMAN_1289] 0.991
IEESRLLYEIQNRDE [OTUD4_HUMAN_460] 0.805
IVINPNAYDNLAIAK [PEAK1_HUMAN_635_YA] 0.935
VQKFQVYYLGNVPVA [APBB1_HUMAN_547] 2.03
DEDCYGNYDNLLSQF [PDPK1_HUMAN_376] 1.02
ITLQQAEYEFLSFVR [ORN_HUMAN_122] 1.38
AKLLCDKYYMASPDL [PDK2_HUMAN_215] 1.99
THRQGHIYMEMNFTN [AP2B1_HUMAN_737] 1.77
SLEPDSTYFDLPQSS [P73_HUMAN_28] 0.791
VAQADGAYKVSRGLW [ODPB_HUMAN_67_YA] 0.872

The binders below were run against SHP2 C-SH2 domain wild-type in the same assay as above. Conditions: peptide library: Human pTyr.

Enrichment score, inactive:
THGGRIDYIAGLDSR [APT_HUMAN_60] 0.694
SVPTHSPYAQPSSTF [P73_HUMAN_99] 0.518
KNETEDQYALMEDED [P85B_HUMAN_605] 1.2
AIGSTLSYFGLAAVF [P2RX7_HUMAN_343_YA] 2.5
ARRLCDLYYINSPEL [PDK1_HUMAN_243] 1.62
VLDVLEFYNSKKTSN [PAK1_HUMAN_131] 0.718
ARRLCDLYAINSPEL [PDK1_HUMAN_243_YA] 1.06
IGGSAPIYVKNILPR [PARD3_HUMAN_489] 0.733
KVVDDEIYYFRKPIV [PB1_HUMAN_1289] 1.06
IEESRLLYEIQNRDE [OTUD4_HUMAN_460] 0.76
IVINPNAYDNLAIAK [PEAK1_HUMAN_635_YA] 1.18
VQKFQVYYLGNVPVA [APBB1_HUMAN_547] 1.92
DEDCYGNYDNLLSQF [PDPK1_HUMAN_376] 0.759
ITLQQAEYEFLSFVR [ORN_HUMAN_122] 1.37
AKLLCDKYYMASPDL [PDK2_HUMAN_215] 1.43
THRQGHIYMEMNFTN [AP2B1_HUMAN_737] 1.7
SLEPDSTYFDLPQSS [P73_HUMAN_28] 0.685
VAQADGAYKVSRGLW [ODPB_HUMAN_67_YA] 0.744

These binders were tested against SHP2 N-SH2 domain L43F in the same assay as above. Conditions: peptide library: Human pTyr.

Enrichment score, inactive:
THGGRIDYIAGLDSR [APT_HUMAN_60] 0.761
SVPTHSPYAQPSSTF [P73_HUMAN_99] 0.607
KNETEDQYALMEDED [P85B_HUMAN_605] 1.08
AIGSTLSYFGLAAVF [P2RX7_HUMAN_343_YA] 2.11
ARRLCDLYYINSPEL [PDK1_HUMAN_243] 1.5
VLDVLEFYNSKKTSN [PAK1_HUMAN_131] 0.866
ARRLCDLYAINSPEL [PDK1_HUMAN_243_YA] 0.985
IGGSAPIYVKNILPR [PARD3_HUMAN_489] 0.847
KVVDDEIYYFRKPIV [PB1_HUMAN_1289] 1.15
IEESRLLYEIQNRDE [OTUD4_HUMAN_460] 0.999
IVINPNAYDNLAIAK [PEAK1_HUMAN_635_YA] 0.664
VQKFQVYYLGNVPVA [APBB1_HUMAN_547] 1.73
DEDCYGNYDNLLSQF [PDPK1_HUMAN_376] 0.973
ITLQQAEYEFLSFVR [ORN_HUMAN_122] 1.09
AKLLCDKYYMASPDL [PDK2_HUMAN_215] 1.23
THRQGHIYMEMNFTN [AP2B1_HUMAN_737] 1.8
SLEPDSTYFDLPQSS [P73_HUMAN_28] 0.653
VAQADGAYKVSRGLW [ODPB_HUMAN_67_YA] 0.836

The binders below were run against SHP2 N-SH2 domain T42A in the same assay as above. Conditions: peptide library: Human pTyr.

Enrichment score, inactive:
THGGRIDYIAGLDSR [APT_HUMAN_60] 0.61
SVPTHSPYAQPSSTF [P73_HUMAN_99] 0.583
KNETEDQYALMEDED [P85B_HUMAN_605] 1.19
AIGSTLSYFGLAAVF [P2RX7_HUMAN_343_YA] 2.27
ARRLCDLYYINSPEL [PDK1_HUMAN_243] 1.3
VLDVLEFYNSKKTSN [PAK1_HUMAN_131] 0.689
ARRLCDLYAINSPEL [PDK1_HUMAN_243_YA] 1.11
IGGSAPIYVKNILPR [PARD3_HUMAN_489] 0.922
KVVDDEIYYFRKPIV [PB1_HUMAN_1289] 0.979
IEESRLLYEIQNRDE [OTUD4_HUMAN_460] 0.867
IVINPNAYDNLAIAK [PEAK1_HUMAN_635_YA] 0.484
VQKFQVYYLGNVPVA [APBB1_HUMAN_547] 1.79
DEDCYGNYDNLLSQF [PDPK1_HUMAN_376] 0.881
ITLQQAEYEFLSFVR [ORN_HUMAN_122] 1.21
AKLLCDKYYMASPDL [PDK2_HUMAN_215] 1.28
THRQGHIYMEMNFTN [AP2B1_HUMAN_737] 1.95
SLEPDSTYFDLPQSS [P73_HUMAN_28] 0.633
VAQADGAYKVSRGLW [ODPB_HUMAN_67_YA] 0.822

These binders were tested against SHP2 N-SH2 domain T52S in the same assay as above. Conditions: peptide library: Human pTyr.

Enrichment score, inactive:
THGGRIDYIAGLDSR [APT_HUMAN_60] 0.743
SVPTHSPYAQPSSTF [P73_HUMAN_99] 0.494
KNETEDQYALMEDED [P85B_HUMAN_605] 1.37
AIGSTLSYFGLAAVF [P2RX7_HUMAN_343_YA] 2.51
ARRLCDLYYINSPEL [PDK1_HUMAN_243] 1.55
VLDVLEFYNSKKTSN [PAK1_HUMAN_131] 1.16
ARRLCDLYAINSPEL [PDK1_HUMAN_243_YA] 1.06
IGGSAPIYVKNILPR [PARD3_HUMAN_489] 1.02
KVVDDEIYYFRKPIV [PB1_HUMAN_1289] 0.798
IEESRLLYEIQNRDE [OTUD4_HUMAN_460] 0.916
IVINPNAYDNLAIAK [PEAK1_HUMAN_635_YA] 0.536
VQKFQVYYLGNVPVA [APBB1_HUMAN_547] 1.95
DEDCYGNYDNLLSQF [PDPK1_HUMAN_376] 1.06
ITLQQAEYEFLSFVR [ORN_HUMAN_122] 1.27
AKLLCDKYYMASPDL [PDK2_HUMAN_215] 1.63
THRQGHIYMEMNFTN [AP2B1_HUMAN_737] 1.85
SLEPDSTYFDLPQSS [P73_HUMAN_28] 0.719
VAQADGAYKVSRGLW [ODPB_HUMAN_67_YA] 0.855

What follows are binders tested against SHP2 N-SH2 domain wild-type in the same assay as above. Conditions: peptide library: Human pTyr.

Enrichment score, inactive:
THGGRIDYIAGLDSR [APT_HUMAN_60] 0.626
SVPTHSPYAQPSSTF [P73_HUMAN_99] 0.614
KNETEDQYALMEDED [P85B_HUMAN_605] 1.22
AIGSTLSYFGLAAVF [P2RX7_HUMAN_343_YA] 3.04
ARRLCDLYYINSPEL [PDK1_HUMAN_243] 2.21
VLDVLEFYNSKKTSN [PAK1_HUMAN_131] 1.18
ARRLCDLYAINSPEL [PDK1_HUMAN_243_YA] 1.11
IGGSAPIYVKNILPR [PARD3_HUMAN_489] 0.905
KVVDDEIYYFRKPIV [PB1_HUMAN_1289] 1.38
IEESRLLYEIQNRDE [OTUD4_HUMAN_460] 0.765
IVINPNAYDNLAIAK [PEAK1_HUMAN_635_YA] 0.701
VQKFQVYYLGNVPVA [APBB1_HUMAN_547] 1.99
DEDCYGNYDNLLSQF [PDPK1_HUMAN_376] 0.84
ITLQQAEYEFLSFVR [ORN_HUMAN_122] 1.99
AKLLCDKYYMASPDL [PDK2_HUMAN_215] 1.49
THRQGHIYMEMNFTN [AP2B1_HUMAN_737] 2.18
SLEPDSTYFDLPQSS [P73_HUMAN_28] 0.596
VAQADGAYKVSRGLW [ODPB_HUMAN_67_YA] 0.857

Reference: the supplement of paper PMC10369915
